Enrichment ratio data for 153 variants are collected here from a collection of fitness landscapes (doi:10.1126/science.1257360).

First the molecules themselves.
B1: PhoQ; a variant is named by its letters at X, in order, P23837 (parent)
chain: MKKLLRLFFPLSLRVRFLLATAAVVLVLSLAYGMVALIGYSVSFDKTTFRLLRGESNLFYTLAKWENNKLHVELPENIDKQSPTMTLIYDENGQLLWAQRDVPWLMKMIQPDWLKSNGFHEIEADVNDTSLLLSGDHSIQQQLQEVREDDDDAEMTHSVAVNVYPATSRMPKLTIVVVDTIPVELKSSYMVWSWFIYVLSANLLLVIPLLWVAAWWSLRPIEALAKEVRELEEHNRELLNPATTRELTSLVRNLNRLLKSERERYDKYRTTLTDLTHSLKTPLXXLQXXLRSLRSEKMSVSDAEPVMLEQISRISQQIGYYLHRASMRGGTLLSRELHPVAPLLDNLTSALNKVYQRKGVNISLDISPEISFVGEQNDFVEVMGNVLDNACKYCLEFVEISARQTDEHLYIVVEDDGPGIPLSKREVIFDRGQRVDTLRPGQGVGLAVAREITEQYEGKIVAGESMLGGARMEVIFGRQHSAPKDE

This is one part of the list. Some results are limits rather than exact numbers.

This experiment covers variants of B1. Nature of the experiment: enrichment ratio after two sorts for PhoP signalling (ratio (wild type AVST 3.29)); higher = more functional. Particulars: with PhoP (E. coli).
Turning to QDWL, the enrichment ratio was not above 0.25.

Take LQYG: the enrichment ratio was not above 0.25.

For RRVK, the enrichment ratio is not above 0.25.

With TMKR, the enrichment ratio was not above 0.25.

GWDS: the enrichment ratio was not above 0.25.

ERSC: the enrichment ratio is not above 0.25.

As to IMKF, the enrichment ratio was not above 0.25.

Regarding YWEV, the enrichment ratio was not above 0.25.

In the case of YYLP, the enrichment ratio was not above 0.25.

With DMRA, the enrichment ratio was not above 0.25.

As to LEHV, the enrichment ratio is not above 0.25.

As to MVLI, the enrichment ratio is 1.96.

As to ASCG, the enrichment ratio worked out at 18.9.

Turning to YPFS, the enrichment ratio is not above 0.25.

As for ERRE, the enrichment ratio was not above 0.25.

Turning to RVCS, the enrichment ratio is not above 0.25.

Turning to DPTN, the enrichment ratio is not above 0.25.

Consider GPAD, for which the enrichment ratio was not above 0.25.

In the case of ENHR, the enrichment ratio is not above 0.25.

For PFLC, the enrichment ratio was not above 0.25.

As to MFII, the enrichment ratio was not above 0.25.

Regarding HQQH, the enrichment ratio is not above 0.25.

Consider IKKC, for which the enrichment ratio is not above 0.25.

As to DDSM, the enrichment ratio was not above 0.25.

HQRR: the enrichment ratio was not above 0.25.

Consider FQLG, for which the enrichment ratio worked out at 16.7.

For YQSI, the enrichment ratio was not above 0.25.

As for QVPI, the enrichment ratio was not above 0.25.

Consider EPTF, for which the enrichment ratio was not above 0.25.

For the variant AFDF, the enrichment ratio was not above 0.25.

For the variant PVEF, the enrichment ratio was not above 0.25.

As for RNIP, the enrichment ratio is not above 0.25.

As for LSQF, the enrichment ratio was not above 0.25.

Consider DIAL, for which the enrichment ratio was not above 0.25.

Consider YVRC, for which the enrichment ratio was not above 0.25.

In the case of DPIY, the enrichment ratio is not above 0.25.

Take KGVN: the enrichment ratio is not above 0.25.

With KKRD, the enrichment ratio was not above 0.25.

With QGYQ, the enrichment ratio stood at 13.9.

On to GKGT, for which the enrichment ratio is not above 0.25.

On to GNWI, for which the enrichment ratio was not above 0.25.

As to VAFH, the enrichment ratio was not above 0.25.

On to PHFG, for which the enrichment ratio is not above 0.25.

QMWR: the enrichment ratio is not above 0.25.

MAGE: the enrichment ratio is not above 0.25.

For the variant GFSQ, the enrichment ratio was not above 0.25.

Turning to THWC, the enrichment ratio is not above 0.25.

For the variant DGCR, the enrichment ratio was not above 0.25.

In the case of TGVT, the enrichment ratio stood at 1.96.

Regarding SEWG, the enrichment ratio was 17.3.

As to YGQH, the enrichment ratio is not above 0.25.

As for FKPD, the enrichment ratio was not above 0.25.

On to YMRK, for which the enrichment ratio was not above 0.25.

As for SCYY, the enrichment ratio turned out to be 0.284.

Regarding QQGW, the enrichment ratio was not above 0.25.

As to FGYW, the enrichment ratio is not above 0.25.

As to KQQW, the enrichment ratio was not above 0.25.

Turning to NNIR, the enrichment ratio was not above 0.25.

Regarding DDLR, the enrichment ratio is not above 0.25.

Regarding EPRR, the enrichment ratio was not above 0.25.

KSQF: the enrichment ratio was not above 0.25.

Regarding RVCY, the enrichment ratio is not above 0.25.

Take YSMP: the enrichment ratio was not above 0.25.

For GEYH, the enrichment ratio was not above 0.25.

Turning to VYNT, the enrichment ratio was not above 0.25.

Consider LWHL, for which the enrichment ratio came to 0.31.

As to IVTT, the enrichment ratio was not above 0.25.

As for SGLV, the enrichment ratio is 17.9.

For VDMK, the enrichment ratio was not above 0.25.

Consider KICG, for which the enrichment ratio is not above 0.25.

In the case of MPSF, the enrichment ratio is not above 0.25.

For GKKH, the enrichment ratio is not above 0.25.

In the case of RYEQ, the enrichment ratio is not above 0.25.

As to YFVS, the enrichment ratio is not above 0.25.

Take KFYL: the enrichment ratio was not above 0.25.

As to SWQI, the enrichment ratio was not above 0.25.

Consider MSIN, for which the enrichment ratio is not above 0.25.

Take NMPE: the enrichment ratio was not above 0.25.

As for RPAW, the enrichment ratio was not above 0.25.

For the variant NGVV, the enrichment ratio is not above 0.25.

For YEEL, the enrichment ratio was not above 0.25.

Turning to IETE, the enrichment ratio was not above 0.25.

FWVH: the enrichment ratio was not above 0.25.

For NLID, the enrichment ratio was not above 0.25.

For GDTM, the enrichment ratio worked out at 4.42.

For the variant FHCW, the enrichment ratio is not above 0.25.

For TACI, the enrichment ratio is 22.6.

As to QSFD, the enrichment ratio is not above 0.25.

As to HMNI, the enrichment ratio was not above 0.25.

Take QNFD: the enrichment ratio is not above 0.25.

Turning to IMYR, the enrichment ratio is not above 0.25.

DKWC: the enrichment ratio is not above 0.25.

As to TSFN, the enrichment ratio came out at 1.62.

For the variant PPIS, the enrichment ratio was not above 0.25.

Turning to DLHW, the enrichment ratio was not above 0.25.

As to WALQ, the enrichment ratio came out at 4.15.

SRAC: the enrichment ratio is not above 0.25.

Take RDFP: the enrichment ratio was not above 0.25.

Consider RRMD, for which the enrichment ratio is not above 0.25.

For the variant VKKF, the enrichment ratio was not above 0.25.

For KEMV, the enrichment ratio is not above 0.25.

Consider ISCS, for which the enrichment ratio was not above 0.25.

In the case of DLDF, the enrichment ratio was not above 0.25.

On to ISRT, for which the enrichment ratio was not above 0.25.

As to TTQM, the enrichment ratio amounted to 12.5.

For the variant QVLP, the enrichment ratio is not above 0.25.

HKQP: the enrichment ratio is not above 0.25.

Turning to QFSR, the enrichment ratio was not above 0.25.

As for FPFM, the enrichment ratio was not above 0.25.

Turning to PGQT, the enrichment ratio was not above 0.25.

With TRWF, the enrichment ratio was not above 0.25.

As for FDPC, the enrichment ratio was not above 0.25.

As for WLFR, the enrichment ratio is not above 0.25.

For FNDG, the enrichment ratio is not above 0.25.

For the variant RGAL, the enrichment ratio came out at 0.701.

As for TFCI, the enrichment ratio was 1.31.

Consider AKDA, for which the enrichment ratio was not above 0.25.

For the variant DGES, the enrichment ratio was not above 0.25.

In the case of FDNA, the enrichment ratio was not above 0.25.

For HGYP, the enrichment ratio stood at 2.24.

Regarding YRVM, the enrichment ratio is not above 0.25.

In the case of HSKV, the enrichment ratio was not above 0.25.

Regarding DIWD, the enrichment ratio was not above 0.25.

As to QCNP, the enrichment ratio is not above 0.25.

In the case of AKMM, the enrichment ratio stood at 30.4.

As for IDME, the enrichment ratio is not above 0.25.

In the case of SFRR, the enrichment ratio was not above 0.25.

Consider MFEW, for which the enrichment ratio was not above 0.25.

On to KQMV, for which the enrichment ratio was not above 0.25.

As to PIFT, the enrichment ratio is not above 0.25.

For the variant PYVI, the enrichment ratio is not above 0.25.

As to NAWR, the enrichment ratio was not above 0.25.

As for WECY, the enrichment ratio was not above 0.25.

PPYE: the enrichment ratio is not above 0.25.

Take PQSI: the enrichment ratio was not above 0.25.

Consider DKNP, for which the enrichment ratio is not above 0.25.

With SWAN, the enrichment ratio is not above 0.25.

Turning to LEEL, the enrichment ratio is not above 0.25.

Take QMIY: the enrichment ratio is not above 0.25.

For RILN, the enrichment ratio was not above 0.25.

As for ETDP, the enrichment ratio was not above 0.25.

For the variant RMML, the enrichment ratio was not above 0.25.

PKAI: the enrichment ratio was not above 0.25.

Take TRWT: the enrichment ratio is not above 0.25.

For IAST, the enrichment ratio is not above 0.25.

For the variant TTVT, the enrichment ratio was found to be 1.12.

For IHLR, the enrichment ratio was not above 0.25.

In the case of KFTA, the enrichment ratio was not above 0.25.

As to WYTP, the enrichment ratio is not above 0.25.

For the variant EESK, the enrichment ratio was not above 0.25.

Regarding EPLA, the enrichment ratio was not above 0.25.

TTTY: the enrichment ratio was 5.49.

Consider KKPC, for which the enrichment ratio is not above 0.25.
